# Results as given in article PMC12820563, “FoxP3 forms a head-to-head dimer in vivo and stabilizes its multimerization on adjacent microsatellites”.
# This is one part of the list.
# Molecular target: T1, MBP-FoxP1dN (Mus musculus, UniProt P58462 326-579)
# T1 sequence: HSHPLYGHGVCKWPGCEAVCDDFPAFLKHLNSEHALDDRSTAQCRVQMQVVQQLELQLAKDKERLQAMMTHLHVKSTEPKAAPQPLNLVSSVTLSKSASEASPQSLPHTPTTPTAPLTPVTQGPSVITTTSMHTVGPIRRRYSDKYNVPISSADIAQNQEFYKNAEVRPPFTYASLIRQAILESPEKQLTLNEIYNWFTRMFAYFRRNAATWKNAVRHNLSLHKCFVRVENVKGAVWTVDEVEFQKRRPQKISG
# Experiment: PD-seq (MBP pull-down with sequencing); 20 mM Tris-HCl pH 7.5, 100 mM NaCl, 1.5 mM MgCl2, 0.4 uM protein, 0.1 uM dsDNA library, 30 min, room temperature, amylose pull-down; high values mean tight binding
# Conditions: protein: recombinant; tags: His6-MBP; chain copies: 2; dsDNA, one strand shown
# Procedure, shortened: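 A fragment of mouse FoxP3 or FoxP1 without its N-terminus, carrying a His6-MBP tag and produced in E. coli, was combined at 0.4 µM with a 0.1 µM degenerate double-stranded DNA library filled in with Klenow. The mixture sat for 30 min at room temperature in Tris pH 7.5 buffer containing NaCl and MgCl2. Protein–DNA complexes were captured on amylose resin, washed three times, and the DNA was freed with proteinase K, barcoded by PCR and sequenced on Illumina. Binding is expressed as reads-per-million enrichment of pull-down over input, with replicates pooled.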
row,Sequence,binding signal
1,GATGATTGTTCTCCCAGCTGATGAATTGATACACTCGAGTAAACAAATTTTCCTAATCTTTCTGTTCAAGCGCCATCTAC,1.34 RPM ratio (pull-down/input)
2,GATGATTGTTCTCCCAGCTGATGAATTTTAAGCATCGAGTAAACAAATTTTCCTAATCTTTCTGTTCAAGCGCCATCTAC,1.08 RPM ratio (pull-down/input)
3,GATGATTGTTCTCCCAGCTGATGAATTCTCACTATCGAGTAAACAAATTTTCCTAATCTTTCTGTTCAAGCGCCATCTAC,1.02 RPM ratio (pull-down/input)
4,GATGATTGTTCTCCCAGCTGATGAATTCTGTGATTCGAGTAAACAAATTTTCCTAATCTTTCTGTTCAAGCGCCATCTAC,1.01 RPM ratio (pull-down/input)
5,GATGATTGTTCTCCCAGCTGATGAATTTAATCCTTCGAGTAAACAAATTTTCCTAATCTTTCTGTTCAAGCGCCATCTAC,0.908 RPM ratio (pull-down/input)
6,GATGATTGTTCTCCCAGCTGATGAATTAAGGTCATCGAGTAAACAAATTTTCCTAATCTTTCTGTTCAAGCGCCATCTAC,0.954 RPM ratio (pull-down/input)
7,GATGATTGTTCTCCCAGCTGATGAATTAAAATCCTCGAGTAAACAAATTTTCCTAATCTTTCTGTTCAAGCGCCATCTAC,0.808 RPM ratio (pull-down/input)
8,GATGATTGTTCTCCCAGCTGATGAATTAGCAAGGTCGAGTAAACAAATTTTCCTAATCTTTCTGTTCAAGCGCCATCTAC,0.85 RPM ratio (pull-down/input)
9,GATGATTGTTCTCCCAGCTGATGAATTCACGTTTTCGAGTAAACAAATTTTCCTAATCTTTCTGTTCAAGCGCCATCTAC,0.926 RPM ratio (pull-down/input)
10,GATGATTGTTCTCCCAGCTGATGAATTCAGTATGTCGAGTAAACAAATTTTCCTAATCTTTCTGTTCAAGCGCCATCTAC,0.952 RPM ratio (pull-down/input)
11,GATGATTGTTCTCCCAGCTGATGAATTCCTGCGGTCGAGTAAACAAATTTTCCTAATCTTTCTGTTCAAGCGCCATCTAC,0.751 RPM ratio (pull-down/input)
12,GATGATTGTTCTCCCAGCTGATGAATTTCAGCAGTCGAGTAAACAAATTTTCCTAATCTTTCTGTTCAAGCGCCATCTAC,0.965 RPM ratio (pull-down/input)
13,GATGATTGTTCTCCCAGCTGATGAATTCGATTCGTCGAGTAAACAAATTTTCCTAATCTTTCTGTTCAAGCGCCATCTAC,0.905 RPM ratio (pull-down/input)
14,GATGATTGTTCTCCCAGCTGATGAATTTAAAAGGTCGAGTAAACAAATTTTCCTAATCTTTCTGTTCAAGCGCCATCTAC,0.788 RPM ratio (pull-down/input)
15,GATGATTGTTCTCCCAGCTGATGAATTCTTCCGATCGAGTAAACAAATTTTCCTAATCTTTCTGTTCAAGCGCCATCTAC,0.898 RPM ratio (pull-down/input)
16,GATGATTGTTCTCCCAGCTGATGAATTGGCGGGATCGAGTAAACAAATTTTCCTAATCTTTCTGTTCAAGCGCCATCTAC,0.831 RPM ratio (pull-down/input)

row,Sequence,binding signal
1,GATGATTGTTCTCCCAGCTGATGAATTGACCACCTCGAGTAAACAAATTTTCCTAATCTTTCTGTTCAAGCGCCATCTAC,0.86 RPM ratio (pull-down/input)
2,GATGATTGTTCTCCCAGCTGATGAATTTTACGCTTCGAGTAAACAAATTTTCCTAATCTTTCTGTTCAAGCGCCATCTAC,0.953 RPM ratio (pull-down/input)
3,GATGATTGTTCTCCCAGCTGATGAATTGGACCGATCGAGTAAACAAATTTTCCTAATCTTTCTGTTCAAGCGCCATCTAC,0.795 RPM ratio (pull-down/input)
4,GATGATTGTTCTCCCAGCTGATGAATTCAGTTTCTCGAGTAAACAAATTTTCCTAATCTTTCTGTTCAAGCGCCATCTAC,0.943 RPM ratio (pull-down/input)
5,GATGATTGTTCTCCCAGCTGATGAATTGTCTAAATCGAGTAAACAAATTTTCCTAATCTTTCTGTTCAAGCGCCATCTAC,1.3 RPM ratio (pull-down/input)
6,GATGATTGTTCTCCCAGCTGATGAATTGTCATGATCGAGTAAACAAATTTTCCTAATCTTTCTGTTCAAGCGCCATCTAC,1.12 RPM ratio (pull-down/input)
7,GATGATTGTTCTCCCAGCTGATGAATTACGATTCTCGAGTAAACAAATTTTCCTAATCTTTCTGTTCAAGCGCCATCTAC,1.03 RPM ratio (pull-down/input)
8,GATGATTGTTCTCCCAGCTGATGAATTGCGGAAATCGAGTAAACAAATTTTCCTAATCTTTCTGTTCAAGCGCCATCTAC,1.3 RPM ratio (pull-down/input)
9,GATGATTGTTCTCCCAGCTGATGAATTAGCAAACTCGAGTAAACAAATTTTCCTAATCTTTCTGTTCAAGCGCCATCTAC,0.989 RPM ratio (pull-down/input)
10,GATGATTGTTCTCCCAGCTGATGAATTACACAGCTCGAGTAAACAAATTTTCCTAATCTTTCTGTTCAAGCGCCATCTAC,1.1 RPM ratio (pull-down/input)
11,GATGATTGTTCTCCCAGCTGATGAATTGTGAGCGTCGAGTAAACAAATTTTCCTAATCTTTCTGTTCAAGCGCCATCTAC,1.03 RPM ratio (pull-down/input)
12,GATGATTGTTCTCCCAGCTGATGAATTCCCCGCGTCGAGTAAACAAATTTTCCTAATCTTTCTGTTCAAGCGCCATCTAC,0.891 RPM ratio (pull-down/input)
13,GATGATTGTTCTCCCAGCTGATGAATTCTCGTCTTCGAGTAAACAAATTTTCCTAATCTTTCTGTTCAAGCGCCATCTAC,0.854 RPM ratio (pull-down/input)
14,GATGATTGTTCTCCCAGCTGATGAATTAAATTATTCGAGTAAACAAATTTTCCTAATCTTTCTGTTCAAGCGCCATCTAC,1.03 RPM ratio (pull-down/input)
15,GATGATTGTTCTCCCAGCTGATGAATTCGGCTCATCGAGTAAACAAATTTTCCTAATCTTTCTGTTCAAGCGCCATCTAC,0.763 RPM ratio (pull-down/input)
16,GATGATTGTTCTCCCAGCTGATGAATTGTCGAGCTCGAGTAAACAAATTTTCCTAATCTTTCTGTTCAAGCGCCATCTAC,0.901 RPM ratio (pull-down/input)
